From PubChem BioAssay AID1508624 (National Center for Advancing Translational Sciences (NCATS), 2021)
About 120 (0.25%) of roughly 48,000 compounds were called active. Another 4% or so got no clear call; they are omitted. Calls come from the whole dose curve; as a rule, active = well fitted activation curve with a large enough effect; inconclusive = small, poorly fitted or top-dose-only effect, or another doubt; inactive = no such curve, though single readings can be large or run the other way. Some of the results follow.

Experiment: Primary qHTS for Identification of Small Molecule Activators of Huntingtin-Antisense Promoter Activity; note: nearly all actives have a fitted effect of over 55% in size
Details: HEK293 HTT-AS promoter firefly luciferase reporter, 24 h; series mostly up to 57.5 µM; activity change, positive = activation: at the top concentration
In short: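 Firefly luciferase signal from promoter-reporter HEK293 cells was scaled between vehicle (0%) and zero RLU (-100%). Compounds were tested at final concentrations of up to 57.5 uM over 24 h at 37 degrees C. PTC124 at 50 uM final served as control inhibitor.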

Activity change, positive = activation, inactive:
Cc1oc2ncn(C)c(=O)c2c1C(=O)Nc1ccccn1 4.52%
CN(C)S(=O)(=O)c1ccc(C(=O)NCCS(=O)(=O)N2CCN(c3ccccc3)CC2)cc1 -5.21%
Cc1ccc(-c2cc(-c3ccc4c(c3)NC(=O)CO4)nc3c2COc2ccc(C)cc2-3)cc1 -2.76%
COc1ccc(OC)c(CNC(=O)c2cc3cc4ccc(OC)cc4nc3o2)c1 6.9%
Cc1cc(NC(=O)c2ccccc2Cl)ccc1NC(=O)c1ccccc1 23.7%
COc1ccc(-c2noc(COc3cc(C)c(Br)c(C)c3)n2)cc1OC 16.8%
COC(=O)[C@@H](N)Cc1ccc(O)c(O)c1 -14%
Cc1ccc(C(=O)/C=C/c2cn(CC(O)CN3CCc4ccccc43)c3ccccc23)cc1 (stereo not drawn) -1.15%
Cc1cc(-n2c(C)nc3ccccc3c2=O)ccc1NC(=O)c1ccc(C)c([N+](=O)[O-])c1 -36.6%
Brc1ccc(-c2nnc3sc(CN4CCCCC4)cn23)cc1 -1.01%
Cc1ccccc1-c1nnc(CN2CCN(c3cccc(C)c3C)CC2)o1 -8.22%
COc1cccc(NC(=O)CSc2nc3c([nH]c4ccccc43)c(=O)n2-c2ccccc2)c1 -25.1%
CCCN1C(=O)c2[nH]nc(-c3ccccc3O)c2C1c1cccc(OCc2ccccc2)c1 (stereo not drawn) -29.5%
Cc1ccc(NC(=O)CSc2nnc(C)n3c2cc2sccc23)c(C)c1 -3.78%
CCOc1ccccc1NC(=O)CSc1nnc(N)s1 7.61% [at 11.5 µM, percent change from vehicle, -100% = no light]
COCCNC(=O)C(=O)NCC(c1cccnc1)N1CCN(c2ccccc2OC)CC1 (stereo not drawn) -11.3%
CC(C)(C)NC(=O)c1cnn(-c2ccccc2)c1C1CCN(C(=O)OC(C)(C)C)CC1 -8.28%
O=C(Cn1ncc2c3ccccc3n(Cc3ccccc3F)c2c1=O)NC1CCCCCC1 -11.6%
O=C(NCc1ccccc1Cl)c1cc2c(s1)-c1ccccc1SC2 3.44%
COc1cc(C(=O)NCC(c2cccnc2)N2CCc3ccccc3C2)cc(OC)c1OC (stereo not drawn) -14.5%
CCC(=O)Nc1ccccc1-c1nc2ccccc2n(CC(=O)c2ccc(C)c(C)c2)c1=O -11.2%
CN1CCN(C(=O)c2ccc3c(c2)N(Cc2c(F)cccc2Cl)C(=O)c2ccccc2S3)CC1 -29.4%
CCc1sc(Nc2ccc(Cl)cc2)nc1-c1cc2cccc(OC)c2oc1=O -1.59%
COc1ccc(-c2noc(N3CCN(c4cccc(Cl)c4)CC3)n2)cc1OC -3.02%
CC(C(=O)Nc1ccc(F)c(Cl)c1)N1Cc2ccccc2C1=O (stereo not drawn) -22.6%
Cc1cc(OCC(=O)Nc2cc(-c3nc4ccccc4[nH]3)ccc2C)ccc1Cl -26.1%
CCSc1oc(-c2ccc(F)cc2)nc1S(=O)(=O)c1ccc(C)cc1 -25.4%
CCOc1ccc(C(=O)CSc2nnc3cc(C)c4ccccc4n23)cc1 -2.06%
Cc1ccccc1C(=O)Nc1nnc(SCc2cc(=O)n3ccccc3n2)s1 -7.16%
CCOc1cc(C(=O)Nc2nnc3n2CCS3)cc(OCC)c1OCC -10.7%
COc1ccccc1CNC(=O)COc1cc(=O)n(C)c2ccccc12 -1.7%
CCCCC(CC)CNC(=O)c1ccc2c(=O)n(CCOC)c(=O)[nH]c2c1 (stereo not drawn) -25%
CC(C)(C)c1ccc(C(=O)NCC(c2cccs2)S(=O)(=O)c2ccc(F)cc2)cc1 (stereo not drawn) -58.4%
Cc1ccc(N(CC(=O)NCC(C)c2ccccc2)S(=O)(=O)N(C)C)cc1 (stereo not drawn) -15.1%
CC(=O)c1cccc(S(=O)(=O)N2CCN(c3ccccc3F)CC2)c1 -20.7%
Cc1ccc(CN2CCC(CNC(=O)c3cc4ccc5cccnc5c4[nH]3)CC2)cc1 -10%
Cc1cc(S(=O)(=O)C(CNC(=O)COc2ccccc2)c2cccs2)ccc1F (stereo not drawn) 3.35%
COc1ccc(NC(=O)CCN2CCN(CCO)CC2)c(OC)c1 14.8% [at 11.5 µM, percent change from vehicle, -100% = no light]
CS(=O)(=O)Oc1ccc2c(NC(N)=O)c(C(=O)c3ccc(Cl)cc3Cl)oc2c1 19.1%
O=C(Nc1ccc2nc(SCc3ccccc3)sc2c1)c1cccc(F)c1 -10.5%
COc1ccc(OCCSc2nc(C)c(Cc3ccccc3)c(=O)[nH]2)cc1 -9.28%
COc1ccccc1Cn1cc(C(=O)c2ccc(Cl)cc2)c(=O)c2cc3c(cc21)OCCO3 -14.1%
COc1ccc(Oc2nc3c(c(=O)n(C)c(=O)n3C)n2Cc2ccccc2Cl)cc1 -2.3%
O=S(=O)(NCCc1csc2nc(-c3ccc(Cl)cc3)nn12)c1ccc(Oc2ccccc2)cc1 -32.2%
CC(=O)c1cccc(NC(=O)CSc2nnc3ccc(-c4ccc(C)cc4)nn23)c1 0.521%
Cc1cc2nc(-c3ccc(Cl)cc3)cc(C(F)(F)F)n2n1 -22.6%
Nc1ccncc1N -9.12%
Cc1ccccc1-c1nc(C(N)=O)c2c(n1)n(-c1ccc3c(c1)OCO3)c(=O)n2C -17.8%
CN(C)S(=O)(=O)c1ccc2c(c1)N(CC(=O)NCc1cccc(Br)c1)C(=O)CS2 -5.18%
O=C(NCc1ccco1)C1CCN(C(=O)N2CCOc3ccc(Cl)cc32)CC1 -1.49%
Cc1cc2c(cc1S(=O)(=O)CCC(=O)NC1CCC(C)CC1)OCC(=O)N2 (stereo not drawn) -8.04%
Cc1ccc(-c2nnc(NC(=O)c3ccc4c(c3)OCCO4)o2)c(C)c1 3.6%
O=C1CC(c2nnc(Cc3ccc(Cl)cc3)o2)CN1c1ccccc1 (stereo not drawn) -15.8%
COc1ccccc1-c1nnc2n(CCc3ccccc3)c(=O)c3ccccc3n12 -19.5%
Cc1ccc(C)c(Cn2c(=O)n(Cc3ccc(C(=O)NC4CCN(Cc5ccccc5)CC4)cc3)c(=O)c3ccccc32)c1 -15.9%
CCN(CC)CCNC(=O)c1ccc2nc(-c3ccccc3)c(-c3ccc(CN4CCC(n5c(=O)[nH]c6ccccc65)CC4)cc3)nc2c1 -25.5%
Cc1ccc(N2CCN(C(=O)NCc3noc4ccccc34)CC2C)cc1 (stereo not drawn) -12.4%
Cc1cccc(C(=O)Nc2ccc(-c3nc4cc(C(C)C)ccc4o3)cc2)c1 0%
COc1ccccc1N1CCN(C(=O)c2cnn(-c3ccc(C)c(C)c3)c2C2CCN(C(=O)OC(C)(C)C)CC2)CC1 -40.7%
COc1ccc(S(=O)(=O)n2nc(C)c(S(=O)(=O)N3CCCCCC3)c2C)cc1OC -14.2%
CCCOc1ccc(C(=O)N(Cc2cccs2)c2ccc(C)cc2)cc1 -20.3%
COc1ccc(Cl)cc1S(=O)(=O)N1CCN(Cc2cccc(F)c2)CC1 -33%
CCOC(=O)c1c(C)oc2ncnc(NCCCN3CCN(c4cc(C)ccc4C)CC3)c12 -18.8%
COc1ccc(-c2c3c(nc4sc(C(=O)Nc5ccc(F)cc5)c(N)c24)CC(C)(C)CC3=O)cc1 16.8%
CCOC(=O)c1ccc(NC(=O)C2CCN(C(=O)N3CC(C)Oc4ccc(C)cc43)CC2)cc1 (stereo not drawn) -38.2%
CCc1sc(Nc2ccc(C)cc2Br)nc1-c1cc2cccc(OC)c2oc1=O -19.3%
CCOC(=O)CSc1nc2c(sc3ccccc32)c(=O)n1Cc1ccc(C)cc1 -8.68%
CC(=O)NCCNc1nc2c(-c3ccc(C)cc3)nnn2c2ccccc12 14.6%
CCCN(CCC)C(=O)Cn1c(=O)n(-c2ccc(C)cc2)c(=O)c2ccc(C(=O)NCc3ccccc3Cl)cc21 -13.7%
CNC(=O)C1CCN(Cc2cc3ccccc3n2Cc2ccccc2C)CC1 -17.4%
Cc1ccc(-c2cn3c(n2)sc2cc(C(=O)NCc4cccs4)ccc23)cc1 4.27%
CCCCNC(=O)Cn1c(=O)cc(C)c2c(C)nn(-c3ccc(CC)cc3)c21 6.38%
CCC1CN(C(=O)N2CCC(C(=O)NCCc3ccc(C)cc3)CC2)c2ccccc2O1 (stereo not drawn) -33%
Cc1oc(-c2ccccc2)nc1CSc1nnc(C)n2c1cc1sccc12 -16.7%
CCOCCCNC(=O)CCC(=O)NNc1nc2ccccc2c2nc(-c3ccccc3)nn12 -12.1%
O=C(CCc1nnc2n(Cc3ccccc3Cl)c(=O)c3ccccc3n12)Nc1ccc(F)c(F)c1 -2.38%
O=C(NCc1cccc(Br)c1)C1CCN(C(=O)c2sccc2-n2cccc2)CC1 -22.1%
Cc1ccc(-n2nc(CO)c(C(=O)NCC(c3ccccc3)c3ccccc3)n2)cc1 2.39%
COc1cccc(-n2cc(C(=O)Oc3cccc(C(F)(F)F)c3)c3ccccc3c2=O)c1 -17.3%
CC(=O)N1c2ccccc2CC1C(=O)N1CCN(c2cccc(Cl)c2)CC1 (stereo not drawn) -12.8%
CC[C@H](NC(=O)[C@H](C)NC)C(=O)N1C[C@@H](O)C[C@H]1Cc1c(-c2[nH]c3cc(F)ccc3c2C[C@H]2C[C@H](O)CN2C(=O)[C@H](CC)NC(=O)[C@H](C)NC)[nH]c2cc(F)ccc12 -33.1%
O=C(CC1C(=O)N(c2ccc(F)cc2)C(=O)N1Cc1ccc2c(c1)OCO2)Nc1ccc(F)cc1 (stereo not drawn) -1.84%
CCOc1ccc(OCC)c(NC(=O)C(NS(=O)(=O)c2ccc(Br)s2)c2ccccc2)c1 (stereo not drawn) -25.9%
COc1cccc(CNC(=O)CN2C(=O)CCCc3ccccc32)c1OC -8.37%
CCOC(=O)c1cnc2c(C)cccc2c1NCCc1ccc(OC)c(OC)c1 -11.3%
CCc1ccc(NC(=O)c2ccc3oc(=O)n(Cc4ccccc4)c3c2)cc1 -36.4%
Cc1ccc(C)c(CN2C(=O)c3ccccc3S(=O)(=O)c3ccc(C(=O)N4CCCC4)cc32)c1 -24.9%
CCN(c1ncnc2c1cnn2-c1cc(Cl)ccc1C)C1CCCCC1 0%
CCN1C(=O)C(Cc2nc3ccccc3c(=O)n2-c2cccc(C)c2)c2ccccc21 (stereo not drawn) -15.4%
CC(C)Oc1ccc(C(=O)NCCc2csc(-c3cccc(F)c3)n2)cc1 -19%
Cc1ccccc1NC(=O)c1c(C)oc2ccc(O)c(CN(C)Cc3ccccc3)c12 -29.1%
Cc1ccc(-c2noc(-c3ccccc3OCC(=O)Nc3ccccc3[N+](=O)[O-])n2)cc1 8.82%
O=C(Nc1ncc(Cc2ccc(F)cc2)s1)c1ccc2c(c1)CC(c1ccccc1)OC2=O (stereo not drawn) -8.47%
